# Laboratory results taken from the supplement of paper PMC12217912.
# Some of the results follow. Sequences were assembled here from the parent chain. Inactive controls read about 0.05.
# B1: TEV protease; numbered along this chain (parent)
# chain: MGESLFKGPRDYNPISSSICHLTNESDGHTTSLYGIGFGPFIITNKHLFRRNNGTLVVQSLHGVFKVKDTTTLQQHLVDGRDMIIIRMPKDFPPFPQKLKFREPQREERICLVTTNFQTKSMSSMVSDTSCTFPSGDGIFWKHWIQTKDGQCGSPLVSTRDGFIVGIHSASNFTNTNNYFTSVPKNFMELLTNQEAQQWVSGWRLNADSVLWGGHKVFMVKPEEPFQPVKEATQL
# Variants of: B1
# Experiment: raw area under fraction-flipped curve 0-4 h after induction (AUC4h, not background-subtracted), DNA-recorder readout of cleavage of the substrate (dimensionless); higher = more cleavage of the substrate by the protease variant
# Conditions: temperature: 34 °C; time window: 0-4 h after rhamnose induction
# Description: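 In vivo DNA recorder in E. coli TOP10(DE3) ΔrhaA at 34 °C. Each TEVp single-site mutant (parent TEVp 0) is paired with a single-site variant of the 7-mer TEVs (canonical ENLYFQ|S). The substrate sits between flexible linkers in a Bxb1-sfGFP-TEVs-SsrA fusion, so cleavage stabilises Bxb1 and speeds flipping of a recombination array, read by NGS. The value is the raw area under the fraction-flipped curve over 0-4 h after rhamnose induction (AUC4h), with ≥20 reads per time point. It is not background-subtracted; inactive controls average about 0.047.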
# 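Also: Bxb1 expression induced with 0.2% (w/v) L-rhamnose at OD600 near 0.5, cultures sampled hourly, flipped fraction per protease–substrate barcode pair counted by paired-end Illumina sequencing.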
Variant,area with substrate ECLYFQS,area with substrate EGLYFQS,area with substrate EHLYFQS,area with substrate EILYFQS,area with substrate EKLYFQS,area with substrate ELLYFQS,area with substrate EMLYFQS,area with substrate EPLYFQS,area with substrate ERLYFQS,area with substrate ETLYFQS
N206E,0.0901,0.0806,0.139,0.0992,0.0997,0.0874,0.0846,0.0997,0.104,0.124
N206I,,0.0787,0.0852,0.107,0.101,0.0935,0.0805,0.0902,0.105,
T174V,0.0841,0.0642,,0.0922,,0.0511,,0.0897,,0.107
Q194M,0.0814,,,0.0916,0.105,0.102,,,0.11,
S201Y,0.0873,0.0807,0.0888,,0.105,,0.153,,0.0858,
E108C,0.0253,0.0531,,0.0685,0.0769,0.0731,0.0731,0.088,0.0736,
Y34N,0.094,,,0.0802,0.0818,0.074,0.0877,,0.0381,
K142Q,,0.0976,,0.0902,0.141,0.0844,0.095,,0.106,
T115P,0.0778,,,0.125,,,,,0.0828,
K90Q,0.102,,,0.0814,0.119,,,,0.0966,
G138D,0.0811,,0.113,0.111,0.0558,,,,,
G214Q,0.0728,,0.0994,,,,,,,
L211S,0.139,,,0.148,,,,,0.143,0.154
Q227N,,,0.108,0.148,0.0825,0.108,0.118,0.114,0.131,
Q227G,0.105,,,0.104,0.105,,,0.135,0.108,
F117D,0.0948,,,,,0.123,0.0932,,,
F117W,0.125,,,0.102,0.0869,0.0929,,,0.0808,

Variant,area with substrate ECLYFQS,area with substrate EGLYFQS,area with substrate EHLYFQS,area with substrate EILYFQS,area with substrate EKLYFQS,area with substrate ELLYFQS,area with substrate EMLYFQS,area with substrate EPLYFQS,area with substrate ERLYFQS,area with substrate ETLYFQS
T70V,0.0758,,,0.0725,0.0809,,0.0696,0.0849,0.0812,0.0761
F187T,,,,,0.0982,0.0517,,,,0.102
T72Y,0.0829,,0.104,0.0796,,0.0818,0.0929,,,
E231P,0.139,0.128,,,,0.149,0.105,0.169,,
T132W,0.0544,0.0715,0.0684,0.0685,,,,0.064,,
V64S,0.0832,,,,0.135,,,,0.123,0.108
G54D,0.0693,0.0722,0.0806,0.0527,0.0745,0.0859,,,0.0796,0.155
S154Q,0.0558,,0.0921,0.0695,,0.095,0.121,,,
E107C,0.0823,,0.0867,,,,,,,
V229P,0.127,0.11,,0.123,,,0.133,0.139,0.0978,0.163
E189S,0.0927,,0.0963,0.126,,,,0.091,,
E189H,,0.0915,,0.0928,,,0.114,,,
S26M,0.102,,,0.0866,0.076,0.0613,0.0925,0.0961,0.0767,
G80F,0.0843,0.108,0.103,,0.0998,0.0673,0.0863,0.106,0.0659,
K221H,0.0938,,,0.0769,0.0904,,,0.126,0.0872,0.114
K216W,0.0778,0.0549,0.0853,0.0725,0.0776,0.074,0.0664,,0.113,0.0967

# Same assay, conditions: temperature: 34 °C; time window: 0-4 h after rhamnose induction
Variant,area with substrate EVLYFQS,area with substrate EWLYFQS,area with substrate EDLYFQS,area with substrate EELYFQS,area with substrate EQLYFQS,area with substrate ESLYFQS,area with substrate EALYFQS,area with substrate EFLYFQS,area with substrate EYLYFQS
N206E,0.115,0.118,,,,,,,
N206I,,,0.0992,0.119,0.0825,0.117,,,
T174V,,0.0831,,,0.085,0.0672,,,
Q194M,0.0932,,,,0.108,0.0921,0.111,0.104,0.0957
S201Y,0.0909,0.0845,,,,0.158,,,0.066
E108C,0.0607,0.0596,0.0783,0.0787,0.0748,0.0787,0.0688,,0.0699
Y34N,,,,,,0.0833,,,0.0935
K142Q,,0.0818,0.148,0.104,,0.0947,,0.0828,
T115P,0.125,,,,0.129,,,,0.0678
K90Q,,0.0718,0.117,0.142,0.13,0.108,0.12,0.108,
G138D,,,0.117,0.101,,,0.104,,
G214Q,0.0759,,,,,,,0.0985,
L211S,,,,,0.157,0.118,,,
Q227N,,0.0965,0.184,,0.119,0.112,,0.11,0.071
Q227G,,,,,,0.111,,0.106,0.135
F117D,0.0851,,,,0.129,,,,
F117W,0.103,,,,,0.136,,,0.103

Variant,area with substrate EVLYFQS,area with substrate EWLYFQS,area with substrate EDLYFQS,area with substrate EELYFQS,area with substrate EQLYFQS,area with substrate ESLYFQS,area with substrate EALYFQS,area with substrate EFLYFQS,area with substrate EYLYFQS
T70V,0.0621,,,,,0.0699,,0.0814,0.095
F187T,0.0716,0.0834,0.12,,,0.0959,,0.0862,
T72Y,0.106,,0.102,0.102,0.105,0.0858,0.0946,,0.106
E231P,0.0898,0.0994,,,,0.099,,,
T132W,0.051,,0.0586,0.0612,,0.0665,0.05,,
V64S,,,0.131,0.0949,0.123,0.103,,,
G54D,0.0694,,0.109,0.0907,0.0592,0.0801,0.102,,0.0739
S154Q,0.102,,,,0.0971,0.105,,,
E107C,0.0874,,,0.101,0.102,0.0844,0.0789,0.0943,0.125
V229P,0.106,0.101,0.108,,0.125,0.123,0.147,0.0886,0.11
E189S,0.0683,,,,0.0991,0.0822,,,
E189H,,,0.119,0.115,,0.102,,0.121,0.115
S26M,0.0714,0.0772,0.0924,0.0918,0.0934,0.0831,0.0756,,
G80F,,0.101,0.13,,0.12,0.0963,,0.0635,0.103
K221H,0.095,0.088,0.111,,0.0994,0.105,0.11,0.113,
K216W,0.084,,0.076,0.0833,0.101,0.0764,,0.0759,
